{"source": "PubChem BioAssay AID493208", "about": "(National Center for Advancing Translational Sciences (NCATS), 2011)", "note": "The campaign covered roughly 44,000 compounds. About 340 (0.77%) were called active. Another 5% or so got no clear call; they are omitted. Calls come from the whole dose curve; as a rule, active = well fitted inhibition curve with a large enough effect; inconclusive = small, poorly fitted or top-dose-only effect; inactive = flat fitted curve, though single readings scatter. This is one part of the list.", "data": [{"assay": "Acumen qHTS Assay for Inhibitors of the mTORC1 Signaling Pathway in MEF (Tsc2-/-, p53-/-) Cells: Sytravon;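 note: plate controls were DMSO for no effect and rapamycin for full effect; nearly all actives have a fitted effect of over 50% in size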", "conditions": "phospho-rpS6 immunofluorescence/PI, 24 h; series mostly up to 38.3 µM; activity change, negative = inhibition: at the top concentration", "outline": "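Readout is phospho-S6 Alexa 488 signal normalized to PI per well, reported as % active cells with thresholds set from rapamycin (7.5 nM) and DMSO controls. Cells: Tsc2-/-, p53-/- MEFs, 24 hrs compound at 37 C; PI cell number serves as viability.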", "values": [{"smiles": "CN(C)S(=O)(=O)N(CC(=O)NCCSCc1c(F)cccc1Cl)c1ccccc1", "activity change, negative = inhibition": "inactive: -6.26%"}, {"smiles": "O=c1[nH]c(SCc2c(F)cccc2Cl)nc2c1CCC2", "activity change, negative = inhibition": "inactive: 0.17%"}, {"smiles": "Cc1cccc(-n2c(C)cc(C(=O)C(=O)Nc3ccccc3F)c2C)c1C", "activity change, negative = inhibition": "inactive: 1.12%"}, {"smiles": "Cc1ccc(S(=O)(=O)N2CCC(N3CCN(Cc4ccccc4)C(=O)C3=O)CC2)cc1C", "activity change, negative = inhibition": "inactive: 1.12%"}, {"smiles": "Cc1ccc(S(=O)(=O)CC(=O)Nc2nc3c(C)cc(C)cc3s2)cc1", "activity change, negative = inhibition": "inactive: 1.07%"}, {"smiles": "Cc1cccc(C(=O)Nc2nnc(S(=O)(=O)N(C)Cc3ccccc3)s2)c1", "activity change, negative = inhibition": "inactive: 7.06%"}, {"smiles": "COc1ccc(C(=O)c2oc3ccccc3c2NC(=O)c2cc(=O)c3ccc(C)cc3o2)cc1Cl", "activity change, negative = inhibition": "inactive: 3.35%"}, {"smiles": "COc1ccc(-c2noc(CNC(=O)c3ccccc3Br)n2)cc1", "activity change, negative = inhibition": "inactive: 0.711%"}, {"smiles": "CCOc1ccc(-c2cccc(NS(=O)(=O)c3ccc(F)cc3F)c2)nn1", "activity change, negative = inhibition": "inactive: 6.93%"}, {"smiles": "COc1cccc(NC(=O)c2cccc3c(=O)c4c([nH]c23)CCCC4)c1", "activity change, negative = inhibition": "inactive: -8.77%"}, {"smiles": "CCCOc1ccc(C2c3c(-c4ccccc4O)n[nH]c3C(=O)N2CCc2ccccc2)cc1OCC", "note": "(stereo not drawn)", "activity change, negative = inhibition": "inactive: 3.81%"}, {"smiles": "CCOc1ccc2ncc3c(-c4ccc(C)cc4)nn(-c4cccc(F)c4)c3c2c1", "activity change, negative = inhibition": "inactive: 3.2%"}, {"smiles": "CCOc1ccc(OCC)c(NC(=O)c2cc(S(=O)(=O)N3CCc4ccccc43)cn2C)c1", "activity change, negative = inhibition": "inactive: 1.21%"}, {"smiles": "Cc1ccc(S(=O)(=O)NCC(c2ccco2)N2CCOCC2)cc1", "note": "(stereo not drawn)", "activity change, negative = inhibition": "inactive: 6.33%"}, {"smiles": "COc1ccc(-c2nc3c(c(SCC(=O)N4CCCCC4)n2)Cc2cc(C)ccc2O3)cc1", "activity change, negative = inhibition": "inactive: -13.7%"}, {"smiles": "O=S(=O)(c1cccc(Cl)c1)c1nnn2c1nc(NCc1ccc3c(c1)OCO3)c1sccc12", "activity change, negative = inhibition": "inactive: -2.24%"}, {"smiles": "CCOC(=O)CSc1nc(-c2ccc(OCC)cc2)cc(C(F)(F)F)c1C#N", "activity change, negative = inhibition": "inactive: 5.35%"}, {"smiles": "CC(=O)Nc1ccc(/C=C/c2noc(-c3ccccc3O)n2)cc1", "activity change, negative = inhibition": "inactive: -0.23%"}, {"smiles": "CCc1nnc(NC(=O)c2cc(=O)c3cc(C)ccc3o2)s1", "activity change, negative = inhibition": "inactive: 0.862%"}, {"smiles": "COc1ccccc1CNC(=O)C(=O)NCC(c1cccs1)S(=O)(=O)c1ccccc1", "note": "(stereo not drawn)", "activity change, negative = inhibition": "inactive: 0.0771%"}, {"smiles": "CC(=O)c1ccc(N2CCN(S(=O)(=O)c3cc4[nH]c(=O)c(=O)[nH]c4cc3C)CC2)cc1", "activity change, negative = inhibition": "inactive: 4.92%"}, {"smiles": "Cc1ccc(C)c(N2CCN(C(=O)Cn3cnc4onc(-c5ccc(F)cc5)c4c3=O)CC2)c1", "activity change, negative = inhibition": "inactive: 7.9%"}, {"smiles": "Cc1ccc2oc(=O)c3cc(C(=O)NCCCOC(C)C)sc3c2c1", "activity change, negative = inhibition": "inactive: -6.98%"}, {"smiles": "COc1ccc(-n2c(SCC(=O)NCc3ccc(Cl)cc3)nc3ccsc3c2=O)cc1", "activity change, negative = inhibition": "inactive: -6.28%"}, {"smiles": "Cc1ccc(NC(=O)CCCc2nc(-c3ccco3)no2)cc1Cl", "activity change, negative = inhibition": "inactive: 0.381%"}, {"smiles": "COc1ccc(-n2nnnc2C2CCN(S(=O)(=O)c3cccc(C(F)(F)F)c3)CC2)cc1", "activity change, negative = inhibition": "inactive: 2.07%"}, {"smiles": "COc1cccc(NC(=O)C(Cc2ccccc2)N2Cc3ccccc3C2=O)c1", "note": "(stereo not drawn)", "activity change, negative = inhibition": "inactive: 0.396%"}, {"smiles": "COc1ccc(NS(=O)(=O)c2ccc(N3CCCCS3(=O)=O)cc2)cc1Cl", "activity change, negative = inhibition": "inactive: -10.1%"}, {"smiles": "COc1ccc(-c2noc(CCC(=O)N(C)c3cc(Cl)ccc3OC)n2)cc1", "activity change, negative = inhibition": "inactive: 0.198%"}, {"smiles": "CC(C)CCOc1ccc(C(=O)NCC2OCCc3ccccc32)cc1", "note": "(stereo not drawn)", "activity change, negative = inhibition": "inactive: -0.659%"}, {"smiles": "COc1cccc(-n2c(=O)c3cc(OC)c(OC)cc3n(CC(=O)Nc3ccc(F)cc3)c2=O)c1", "activity change, negative = inhibition": "inactive: -12.6%"}, {"smiles": "CCS(=O)(=O)N1CCCc2cc(C(=O)Nc3cccc(C(C)=O)c3)ccc21", "activity change, negative = inhibition": "inactive: 2.39%"}, {"smiles": "COc1cc(NC(=O)c2cccc(Cl)c2Cl)ccc1NC(=O)c1cc2ccccc2o1", "activity change, negative = inhibition": "inactive: 7.68%"}, {"smiles": "CCCn1c2ccc(F)cc2c2nnc(SCCN3CCCCC3)nc21", "activity change, negative = inhibition": "inactive: 0.0362%"}, {"smiles": "CCC(=O)N1CCc2cc(Br)cc(S(=O)(=O)CCC(=O)Nc3cccc(Cl)c3)c21", "activity change, negative = inhibition": "inactive: -6.48%"}, {"smiles": "CCCc1cnc2c(c1SCC(=O)Nc1ccccc1OCC)c(=O)n(C)c(=O)n2C", "activity change, negative = inhibition": "inactive: -0.507%"}, {"smiles": "Clc1ccc(-c2nnn3c2nc(NC2CCCCC2)c2ccccc23)cc1", "activity change, negative = inhibition": "inactive: -6.72%"}, {"smiles": "CCOc1ccc(Nc2ncnc3c2c(-c2ccccc2)cn3-c2cccc(C)c2)cc1", "activity change, negative = inhibition": "inactive: -22.1%"}, {"smiles": "CCOc1ccc(C(=O)N(Cc2ccc(C(C)C)cc2)Cc2ccco2)cc1", "activity change, negative = inhibition": "inactive: -22.9%"}, {"smiles": "Cc1cc2c(cc1NS(=O)(=O)c1ccc(Br)cc1)n(C)c(=O)c(=O)n2C", "activity change, negative = inhibition": "inactive: 1.9%"}, {"smiles": "COc1cccc(Cn2nc(SC)c(S(=O)(=O)c3ccccc3)c2N(C(C)=O)C(C)=O)c1", "activity change, negative = inhibition": "inactive: -0.934%"}, {"smiles": "CCCSCCCNC(=O)c1ccc(C)c(NC(=O)c2nsc3ccccc23)c1", "activity change, negative = inhibition": "inactive: -7.39%"}, {"smiles": "COc1ccc(CC(=O)N2CCc3cc(OC)c(OC)cc3C2COc2ccc(F)cc2)cc1", "note": "(stereo not drawn)", "activity change, negative = inhibition": "inactive: 3.43%"}, {"smiles": "COc1ccc(OC)c(NC(=O)c2oc(=O)c3ccccc3c2-c2ccccc2)c1", "activity change, negative = inhibition": "inactive: 1.48%"}, {"smiles": "COc1cc2c(cc1OC)C(c1cccc(Cl)c1)CC(=O)N2", "note": "(stereo not drawn)", "activity change, negative = inhibition": "inactive: 0.738%"}, {"smiles": "COc1ccc(N2CCN(S(=O)(=O)c3ccc(F)c(C(=O)Nc4ccccc4Cl)c3)CC2)cc1", "activity change, negative = inhibition": "inactive: 2.38%"}, {"smiles": "Cn1nc(-c2ccccc2F)c2cc(C(=O)NCc3ccccc3Cl)sc21", "activity change, negative = inhibition": "inactive: -9.91%"}, {"smiles": "CCOc1ccc(NCc2cccn2-c2nnc(N3CCC(C(=O)NCc4ccccc4Cl)CC3)s2)cc1", "activity change, negative = inhibition": "inactive: -0.841%"}]}]}
